System: Vcap cells (androgen receptor (+) prostate cancer cells)
Experiment: CTG cell proliferation assay (CellTiter-Glo), compounds alone or in combination
[1] = 1 μM tested compound in combination with 1 μM B001
[2] = Homo sapiens, VCaP, 120 h, read-out: Survival rate of Vcap cells

SMILES | Survival rate of Vcap cells [1] [%] | Survival rate of Vcap cells (10 μM tested compound in combination with 1 μM B001) [%] | viability at 1 µM [2] [%] | viability at 10 µM [2] [%]
CC1(C)C(=O)N(c2ccc(C#N)c(C(F)(F)F)c2)C(=S)N1c1ccc(OC[C@@H](O)CO)cc1 [AR3-3] | 59.220 |  |  | 
CC1(C)C(=O)N(c2ccc(C#N)c(C(F)(F)F)c2F)C(=S)N1c1ccc(CCCc2ncco2)nc1 [AR2-5] | 68.577 | 58.564 | 86.2 | 71.2
